Test results reported in the supplement of paper PMC10126150.
Sequences with one replicate were seen in a single cluster, so their values are uncertain.

Each sequence was assayed on ATP (assay: switch fluorescence ratio, 500 uM ATP over buffer (Cy3 cluster intensity, sum of 5 cycles each) (fold (ratio)); higher = stronger signal-on switching upon ATP binding; sequences stand for … in TCGTCGGCAGCGTCAGATGTGTATAAGAGACAGTTTTTTTTTTTTTTTTTTTTTTTTT…TC). Conditions: aptamer strand: ATP DNA aptamer (quencher-CACCTGGGGGAGTATTGCGGAGGAAGG + anchor), 100 nM annealed; ATP concentration: 500 uM; one replicate.
Procedure, shortened: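 Imaging in selection buffer was followed by imaging after 15 min with 500 uM ATP at 22 °C, for Cy3-labelled switching-strand clusters annealed to 100 nM quencher-labelled ATP aptamer on a modified Illumina MiSeq flow-cell. Five of these buffer/ATP cycles ran, separated by NaOH stripping and re-annealing. The fluorescence ratio per cluster is summed target-cycle over summed buffer-cycle Cy3 intensity, averaged per switch-domain sequence; clusters outside 100-1000 RFU were removed.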
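Also: ATP exposure 15 min at 22 °C before imaging.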

Row | Sequence | switch fluorescence ratio
1 | GGCCATTGGT | 1.02
2 | TTTTAATGTA | 0.981
3 | ACAGTCTCTA | 0.982
4 | TGATAACGGT | 1.02
5 | TGAGAGCAAG | 0.991
6 | CGTTAAGACT | 0.981
7 | CGAGTGCAAC | 1.02
8 | CAGTAATGTG | 1.01
9 | ACTTGGGAAC | 1.03
10 | CTTCAAGACA | 1.03
11 | TACTTGGACC | 1.08
12 | TATAGCAAGG | 1.01
13 | TTATCTCGC | 1.02
14 | TCCCGCCATA | 2.16
15 | TGGAGGGTCC | 1.32
16 | CGATAACTTC | 1
17 | CTAAAATTGG | 1.01
18 | GGGGAGCTGC | 0.92
19 | GCAGACCTAC | 1.32
20 | GTACGACTGG | 0.993
21 | GTAATAGTTA | 0.983
22 | TCATACTGTC | 1.01
23 | CAACACCGAT | 0.994
24 | CTCCTAGGAG | 0.978
25 | TCATGTCTGT | 0.982
26 | CAGCAACAGG | 1.2

Row | Sequence | switch fluorescence ratio
27 | TTTTGTCTCA | 0.996
28 | TGGATATGAG | 0.993
29 | ATGCGTCGTA | 1.03
30 | GATTGAGGTG | 0.983
31 | GCTATCATT | 0.992
32 | TAGAACACGT | 0.949
33 | CCTCATTAAT | 1.24
34 | GGTAACTCAT | 0.958
35 | AGTCGGGTGA | 0.981
36 | AAGGCCTCGT | 0.97
37 | TTTTAACAAA | 0.987
38 | GAACTGGAAT | 0.999
39 | AGTTGCGCAA | 1.06
40 | CGAGTGCGGT | 1.04
41 | GAGCTGTATA | 0.945
42 | CTGTGAACGA | 1.02
43 | GGTATCGCG | 1.03
44 | TACTGGCTTG | 0.998
45 | ATTAAGATAG | 0.995
46 | TGTGTTGCAA | 1.13
47 | AGCCTCAATC | 1.53
48 | CCCTAGTCCA | 1.03
49 | CTCGCTTGAC | 1.83
50 | AAGTAGTACG | 0.911
51 | AATTTTGCTC | 0.997
52 | TAACCAGCTA | 1.01

Row | Sequence | switch fluorescence ratio
53 | AGGGGTTG | 0.966
54 | GCAGACGAGT | 0.93
55 | AGGGCCATCA | 0.975
56 | AATTCGTGTG | 0.973
57 | TTATAGTAGG | 1
58 | TGCTAGACGA | 1.1
59 | CAACCTTGAA | 0.977
60 | CGTACGGCCT | 0.971
61 | GACTGGGTTA | 1.04
62 | ATCGGGTCTG | 0.972
63 | TGCAGCCGG | 1.06
64 | TGTTCGTAAT | 1.11
65 | AATCAATCTG | 0.976
66 | ATTTGTGCGT | 1.01
67 | CGGACCATCA | 1.02
68 | TCCATCTGAA | 1.02
69 | GAGTCTAAAT | 1.04
70 | GAAAGATGAA | 0.943
71 | ACCTAACGTG | 1.36
72 | GCTTGAGAAC | 0.979
73 | AAATCTGACT | 1.23
74 | TCGGTCGCCA | 1.07
75 | AAATGTGGCT | 0.978
76 | AATCCTCCGT | 3.89
77 | AATAGTAAAA | 0.99
78 | CTCACCGCCC | 1.9

Row | Sequence | switch fluorescence ratio
79 | GGAACCAAGT | 1.05
80 | GCGTACGGGG | 0.988
81 | CGAAGAGGAA | 0.994
82 | GCTGAGGTGG | 1.03
83 | CAAACGTAAA | 1.23
84 | ACCGAGAGCC | 1.01
85 | GGTAGCAGGA | 1.02
86 | AGATTGACGG | 1.03
87 | GCAGAAAGGC | 1.16
88 | GGCGCGGACT | 1.03
89 | ATTGTAACGC | 1
90 | CTCATTCAGT | 0.965
91 | CCAGTCGCTG | 1
92 | TACCAGGAA | 1.02
93 | AATGACAAGG | 1.01
94 | TGATCATTTT | 0.957
95 | TTCCTAGCGA | 1.15
96 | ATAATCGTTT | 0.989
97 | TAGGATTTG | 0.979
98 | TAGTGTCTTG | 0.988
99 | GTTCTGGAGT | 1.12
100 | TTCATCACTT | 0.99
101 | GGTTATTTCG | 1.02
102 | CGGTCAAA | 1.02
103 | CTCCTGGGTG | 5.46
104 | GGCCCAGGAA | 1.19

Row | Sequence | switch fluorescence ratio
105 | TTAGTAAGAT | 0.98
106 | AGAATAAACG | 1.03
107 | CCATGCTTAT | 1.01
108 | TGAGGGGCT | 0.948
109 | GCCTGAATTT | 0.953
110 | CAGTCAGTTG | 1.03
111 | ATTTGCTCTG | 0.99
112 | AAGTAGGCTT | 1.01
113 | CATACCCCCG | 1.55
114 | ATCGGCTTAA | 1
115 | GCAGTTAGAA | 1.01
116 | TCATAACCTT | 1.72
117 | GAAGTGCTGG | 1.03
118 | AGTCGCGCTC | 0.983
119 | AGGGTAGCGC | 1
120 | ATTGATCGCA | 1.01
121 | AGAGCTTCTG | 1.01
122 | CGTTCCAGAA | 1.02
123 | AGCGGGCTGT | 1.01
124 | CGAGCCTTGA | 0.996
125 | ATTACAGGGG | 1.22
126 | ACCTCCCCT | 1.67
127 | GTCTGAGAGG | 0.98
128 | ACAATGACAC | 1.1
129 | AGGGGTCAAA | 0.987
130 | TATGATGATT | 1.31

Row | Sequence | switch fluorescence ratio
131 | GATAGTATTA | 1.05
132 | GTAGTGGGCT | 0.996
133 | ACGTGGACTG | 1.02
134 | AGGCGTAGGG | 0.984
135 | GTATTGTACA | 1.02
136 | ATTGCGATGG | 1.06
137 | CCCCAGCAGG | 2.85
138 | ATAGGGGACC | 0.998
139 | CCAGCTTAGG | 1.03
140 | GCGCCAGTTA | 0.973
141 | AAGGTTCGGA | 1.01
142 | TTACATGGTT | 1.01
143 | CGACCGGGTT | 1.05
144 | ATGCTAGCGA | 1.02
145 | TATGATAGTG | 0.967
146 | GGGCTGGACC | 1.06
147 | TACCCCATCT | 1.06
148 | GAGTCCGACT | 0.939
149 | AATAGAGCGT | 0.993
150 | GATTCTTCCC | 1.08
151 | GCTTGCCGTG | 1.02
152 | GCGAGAGTA | 0.954
153 | GGGTGAGTCC | 0.988
